Here are results for ten molecules from patent US20230416360A1 (SIMCERE ZAIMING PHARMACEUTICAL, published 2023).

Usually EC50 stands for the midpoint of the concentration-response curve. High values mean a need for much substance, low ones an effect from little substance.

Assay [1] concerns the target T1, murine CD22-ECD-His (mouse, UniProt P35329 22-708).
T1 construct: extracellular domain; Bought; also called mouse CD22; murine CD22 protein
T1 sequence (looked up): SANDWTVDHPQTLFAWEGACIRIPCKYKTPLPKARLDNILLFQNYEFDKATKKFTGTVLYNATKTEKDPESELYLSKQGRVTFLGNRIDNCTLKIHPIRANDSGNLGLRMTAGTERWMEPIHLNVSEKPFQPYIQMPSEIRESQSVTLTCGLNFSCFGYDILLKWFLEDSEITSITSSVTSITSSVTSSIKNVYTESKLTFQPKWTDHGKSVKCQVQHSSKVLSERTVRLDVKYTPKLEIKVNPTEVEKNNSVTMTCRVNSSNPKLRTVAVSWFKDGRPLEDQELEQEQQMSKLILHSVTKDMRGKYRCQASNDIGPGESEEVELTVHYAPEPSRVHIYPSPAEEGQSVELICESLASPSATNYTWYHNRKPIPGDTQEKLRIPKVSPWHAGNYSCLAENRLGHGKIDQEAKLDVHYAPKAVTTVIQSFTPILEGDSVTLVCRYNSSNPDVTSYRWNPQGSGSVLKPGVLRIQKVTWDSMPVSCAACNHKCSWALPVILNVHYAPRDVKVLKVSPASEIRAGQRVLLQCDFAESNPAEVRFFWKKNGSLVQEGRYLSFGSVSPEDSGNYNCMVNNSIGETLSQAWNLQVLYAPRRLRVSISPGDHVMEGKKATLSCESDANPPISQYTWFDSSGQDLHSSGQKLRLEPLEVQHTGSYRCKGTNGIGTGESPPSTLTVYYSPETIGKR
The assay is described as follows: ELISA, coated mouse CD22, antibody 0.0001 nM. As to the method:
(§1) The plate was sealed with plastic film and incubated overnight at 4° C., the plate was washed 2 times with PBS the next day, and then a blocking solution [PBS+2% (w/w) BSA] was added for blocking at room temperature for 2 hours. […] After incubation at 37° C. for 2 hours, the plate was washed 3 times with PBS. HRP (horseradish peroxidase)-labeled secondary antibody (purchased from Sigma, catalog number: A0170) was added, and incubated at 37° C. for 2 hours, and the plate was washed 5 times with PBS. TMB substrate was added at 50 μl/well, and incubated at room temperature for 30 minutes, then a stop solution (1.0 N HCl) was added at 50 μl/well.
In general terms: ELISA stands for enzyme-linked immunosorbent assay.

Assay [2] deals with T2, human CD22 (full length, on cells) (human, UniProt P20273 20-847).
T2 construct: Raji cells carry endogenous human CD22; also called CHO-K1-human CD22 2C4; CHO-K1-human CD22 1G5
T2 sequence: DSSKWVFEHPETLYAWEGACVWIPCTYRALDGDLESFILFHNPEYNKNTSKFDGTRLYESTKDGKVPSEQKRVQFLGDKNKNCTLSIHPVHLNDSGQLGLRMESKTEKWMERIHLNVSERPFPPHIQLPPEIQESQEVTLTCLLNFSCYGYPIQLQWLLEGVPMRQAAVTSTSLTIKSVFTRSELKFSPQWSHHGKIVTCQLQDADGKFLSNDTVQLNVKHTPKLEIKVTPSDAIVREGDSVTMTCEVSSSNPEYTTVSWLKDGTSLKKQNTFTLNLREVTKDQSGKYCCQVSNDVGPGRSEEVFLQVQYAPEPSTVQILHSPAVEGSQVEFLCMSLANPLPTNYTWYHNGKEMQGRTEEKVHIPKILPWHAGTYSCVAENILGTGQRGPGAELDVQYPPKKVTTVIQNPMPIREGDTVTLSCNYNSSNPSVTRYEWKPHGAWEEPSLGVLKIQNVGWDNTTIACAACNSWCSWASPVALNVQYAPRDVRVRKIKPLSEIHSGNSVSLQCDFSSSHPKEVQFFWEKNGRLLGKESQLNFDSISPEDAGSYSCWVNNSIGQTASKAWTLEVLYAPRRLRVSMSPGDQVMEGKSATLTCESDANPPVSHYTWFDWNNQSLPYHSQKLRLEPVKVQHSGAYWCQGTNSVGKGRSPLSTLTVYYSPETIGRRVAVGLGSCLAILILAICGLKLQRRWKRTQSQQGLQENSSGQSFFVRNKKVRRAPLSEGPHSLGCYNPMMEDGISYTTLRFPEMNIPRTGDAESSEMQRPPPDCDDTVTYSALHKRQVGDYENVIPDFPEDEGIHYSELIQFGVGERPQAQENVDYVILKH
The assay is described as follows: FACS, CHO-K1-human CD22 2C4 cells. The text has this: The required cells were scale-up cultured in a T-75 cell culture flask to the logarithmic growth phase. For the adherent cell CHO-K1, the medium was aspirated, the cells were washed 2 times with PBS buffer, and then digested with trypsin. After the digestion was terminated, the cells were washed 2 times with PBS buffer. For suspension cell Raji, the medium supernatant was directly centrifuged and discarded, and the cell pellet was washed 2 times with PBS. […] The mixture was centrifuged and washed 3 times with PBS buffer, Alexa Flour 488-labeled secondary antibody (purchased from Invitrogen, catalog number: A-11013) was added at 50 μl/well, and incubated on ice for 1 hour. The obtained mixture was centrifuged and washed 5 times with PBS, and FACS (FACS Canto™, purchased from BD Company) was used for detection and result analysis. Data analysis was performed by software (CellQuest) to obtain the mean fluorescence density (MFI) of the cells. And then software (GraphPad Prism8) was used for analysis, data fitting, and EC50 value calculation.
(A flow cytometer gives signals particle by particle.)

The target in assay [3] is T3, human CD22-ECD-His (human, UniProt P20273 20-687).
T3 construct: Made in HEK293E, purified on nickel column; also called hCD22-ECD-His; recombinant human CD22-ECD His; not shown: His tag
T3 sequence: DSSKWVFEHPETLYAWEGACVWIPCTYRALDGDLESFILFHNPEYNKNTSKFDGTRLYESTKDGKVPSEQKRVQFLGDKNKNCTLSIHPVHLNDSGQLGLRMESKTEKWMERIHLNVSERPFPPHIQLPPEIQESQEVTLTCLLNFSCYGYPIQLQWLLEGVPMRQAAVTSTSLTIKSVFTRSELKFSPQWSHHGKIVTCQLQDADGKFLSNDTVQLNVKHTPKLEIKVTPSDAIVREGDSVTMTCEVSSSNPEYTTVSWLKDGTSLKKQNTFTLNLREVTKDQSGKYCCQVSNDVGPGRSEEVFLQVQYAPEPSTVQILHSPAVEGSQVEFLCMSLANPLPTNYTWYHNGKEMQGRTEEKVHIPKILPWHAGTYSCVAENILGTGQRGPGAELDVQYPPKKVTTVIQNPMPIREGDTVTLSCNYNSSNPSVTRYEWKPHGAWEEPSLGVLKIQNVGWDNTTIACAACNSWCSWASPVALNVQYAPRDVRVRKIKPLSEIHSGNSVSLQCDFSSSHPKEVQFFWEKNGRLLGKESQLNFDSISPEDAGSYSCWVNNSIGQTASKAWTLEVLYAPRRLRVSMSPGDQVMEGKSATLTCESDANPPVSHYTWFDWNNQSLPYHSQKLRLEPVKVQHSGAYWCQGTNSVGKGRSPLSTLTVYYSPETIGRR
Put plainly: ELISA, coated hCD22-ECD-His, antibody 0.01 nM. The procedure:
as §1

B1: S002-NB151-66 VHH-Fc (Fc fusion)
chain: QVQLVESGGGLVQAGGSLRLACAASGDTVSIYYMGWFRQAPGKEREFVGALSASGQFTDHADSVKGRFTISRDDAQNTVFLHMNDLKPEDTAVYYCAVQRYGWVYRTDKTMYNYWGQGTQVTVSS[human IgG1 Fc with changes cut from this listing]
notes: VHH cloned into vector BI3.4-huIgG1 (hinge and human IgG1 Fc), made in HEK293E
As to B1, the OD450 in assay [1] amounted to 0.07. In assay [2], the EC50 is 2.14 nM and the “Max MFI” value worked out at 12500. In assay [3], this molecule yielded an OD450 of 0.64.

B2: S002-NB151-82 VHH-Fc (Fc fusion)
chain: EVQVVESGGGLVQAGDSLRLSCTTSGRTFYGDYIAWFRQAPGKEREFVAAIAVRGRGTFYGDSVKGRFTISRDNAENTLSLQMNSLKPEDTAVYYCAADAGSYASRGFPVRETGRYDYWGQGTQVTVSS[human IgG1 Fc with changes cut from this listing]
notes: VHH cloned into vector BI3.4-huIgG1 (hinge and human IgG1 Fc), made in HEK293E; also called 5002-NB151-82
As for B2, the OD450 in assay [1] turned out to be 0.08. For the same molecule, in assay [2], the EC50 was found to be 1.67 nM and the “Max MFI” value came to 13000. In assay [3], this molecule had an OD450 of 0.59.

B3: S002-NB151-23 VHH-Fc (Fc fusion)
chain: QVQLVESGGGLVQAGGSLTVSCTNSGRTLSTSTIAWFRQKPGKDSEFVAAIRWSGGMGWYADSVKGRFTISRDNAENTVSLQMNTLQPEDTAVYFCAVSTVPYYGSIYTRVGDYPYWGQGTQVTVSS[human IgG1 Fc with changes cut from this listing]
notes: VHH cloned into vector BI3.4-huIgG1 (hinge and human IgG1 Fc), made in HEK293E; also called 5002-NB151-23
With B3, the OD450 in assay [1] is 0.06. Also, in assay [2], the EC50 was 2.02 nM and the “Max MFI” value was 11800. Also, the OD450 in assay [3] stood at 0.69.

B4: S002-NB151-92 VHH-Fc (Fc fusion)
chain: QVQLVESGGGLVQSGGSLRLSCAASGFTFSDYTMNWVRQAPGKGLEWVSEISSGGHFKSNADSVKDRFTISRDNAKNTLYLQMNSLKPEDTAVYFCAKCPRPSVYCRDYESTSLYRGQGTQVTVSS[human IgG1 Fc with changes cut from this listing]
notes: VHH cloned into vector BI3.4-huIgG1 (hinge and human IgG1 Fc), made in HEK293E; also called 5002-NB151-92
The molecule B4 showed an OD450 in assay [1] of 0.05. In assay [2], the EC50 came out at 1.3 nM and the “Max MFI” value worked out at 13700. This molecule came in with an OD450 in assay [3] of 0.71.

B5: S002-NB151-13 VHH-Fc (Fc fusion)
chain: QVQLVESGGGLVQAGDSLRLSCAASTRIFRSYVMGWFRQAPGKEREAVASIRWSNDTGTYADSVKGRFTISRDNAKNTVYLQMNSLKPEDTAVYSCAADSPPWGRTWYTGYDYWGQGTQVTVSS[human IgG1 Fc with changes cut from this listing]
notes: as for B1
In the case of B5, in assay [2], the EC50 was found to be 1.36 nM and the “Max MFI” value was 17600. The OD450 in assay [3] was 0.86.

B6: S002-NB151-2 VHH-Fc (Fc fusion)
chain: QVQLVESGGGLVQAGDSLRLSCAASGRTFSPSTMAWFRQAPGKERELVARIGWTYGDTYYVDSAKGRFTISMDNVKNTVYLQMNSLKPEDTAVYYCAALFRGGLSYNFSNRGTQVTVSS[human IgG1 Fc with changes cut from this listing]
notes: VHH cloned into vector BI3.4-huIgG1 (hinge and human IgG1 Fc), made in HEK293E; also called 5002-NB151-2
Regarding B6, the OD450 in assay [1] was 0.06; in assay [3], 1.17. In assay [2], this molecule showed an EC50 of 1.17 nM. Further, the “Max MFI” value in assay [2] came to 17900.

B7: S002-NB150-159n VHH-Fc (Fc fusion)
chain: QVQLVESGGGLVQAGDSLRLACEASGRTATISTMGWFRQAPGKEREFVGRIDWSAESTYIVDSVKGRFIISRDNAKNAGYLQMNSLKPVDTAVYYCAAIVVRERSYKYWGQGTQVTVSS[human IgG1 Fc with changes cut from this listing]
notes: VHH cloned into vector BI3.4-huIgG1 (hinge and human IgG1 Fc), made in HEK293E; also called S002-NB150-15911
With B7, the OD450 in assay [1] was 0.05; in assay [3] it was 0.9. A half-maximal response in assay [2] (EC50) required 2.14 nM. Further, in assay [2], the “Max MFI” value is 9660.

B8: S002-NB151-30 VHH-Fc (Fc fusion)
chain: QVQLVESGGGLVQAGGSLRLSCAASGRASGSGAMGWFRQAPGQERRFVAGIEWSSGGPVYADSVKGRFTLSRDNAKNTVHLQMNSLKPEDTAVYYCAAAPWVFSSPDDYMYWGQGTQVTVSS[human IgG1 Fc with changes cut from this listing]
notes: VHH cloned into vector BI3.4-huIgG1 (hinge and human IgG1 Fc), made in HEK293E; also called 5002-NB151-30
Regarding B8, the OD450 in assay [1] amounted to 0.07; in assay [3], 0.53. Also, a half-maximal effect in assay [2] (EC50) was put at 2.46 nM. Further, the “Max MFI” value in assay [2] stood at 12800.

B9: HA22 scFv-hFc (Fc fusion)
chain: EVQLVESGGGLVKPGGSLKLSCAASGFAFSIYDMSWVRQTPEKCLEWVAYISSGGGTTYYPDTVKGRFTISRDNAKNTLYLQMSSLKSEDTAMYYCARHSGYGTHWGVLFAYWGQGTLVTVSAGGGGSGGGGSGGGGSDIQMTQTTSSLSASLGDRVTISCRASQDISNYLNWYQQKPDGTVKLLIYYTSILHSGVPSRFSGSGSGTDYSLTISNLEQEDFATYFCQQGNTLPWTFGCGTKLEIK[human IgG1 Fc with changes cut from this listing]
Turning to B9, in assay [2], it took 1.89 nM to reach a half-maximal effect (EC50) and the “Max MFI” value turned out to be 9970. Also, the OD450 in assay [3] came to 0.45.

B10: S002-NB151-51 VHH-Fc (Fc fusion)
chain: QVQLVESGGGLVQAGGSLRLSCAASGITSDDYAIGWFRQAPGKEREGVSCMYSSDGSTYYADSVKGRFTISRDNAKNTVYLQMNSLRPEDTAVYHCAAGPWCFVTGVGREEWGQGTQVTVSS[human IgG1 Fc with changes cut from this listing]
notes: VHH cloned into vector BI3.4-huIgG1 (hinge and human IgG1 Fc), made in HEK293E; also called 5002-NB151-51
For the molecule B10, the OD450 in assay [1] came out at 0.08. For the same molecule, in assay [2], a half-maximal response (EC50) required 1.45 nM and the “Max MFI” value is 12800. Besides, in assay [3], the OD450 was 0.6.
